# This is one part of the list. The list includes weakly bound sequences.
# Biological target: T1, MBP-FoxP3dN (UniProt Q99JB6)
# T1 sequence: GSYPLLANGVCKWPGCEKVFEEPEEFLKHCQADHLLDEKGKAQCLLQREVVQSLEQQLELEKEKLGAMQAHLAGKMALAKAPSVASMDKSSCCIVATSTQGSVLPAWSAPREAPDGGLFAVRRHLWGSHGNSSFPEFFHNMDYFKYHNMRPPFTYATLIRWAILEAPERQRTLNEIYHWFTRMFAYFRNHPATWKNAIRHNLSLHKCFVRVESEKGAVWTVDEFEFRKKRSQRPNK
# Test: PD-seq (MBP pull-down with sequencing)
# Settings: 20 mM Tris-HCl pH 7.5, 100 mM NaCl, 1.5 mM MgCl2, 0.4 uM protein, 0.1 uM dsDNA library, 30 min, room temperature, amylose pull-down; high values mean tight binding; double strand, one strand shown
row,Sequence,binding signal (RPM ratio (pull-down/input))
1,GATGATTGTTCTCCCAGCTGATGAATTGCTTAGCTCGAGTAAACAAATTTTCCTAATCTTTCTGTTCAAGCGCCATCTAC,0.719
2,GATGATTGTTCTCCCAGCTGATGAATTTGGATTATCGAGTAAACAAATTTTCCTAATCTTTCTGTTCAAGCGCCATCTAC,1.04
3,GATGATTGTTCTCCCAGCTGATGAATTCTCTTAGTCGAGTAAACAAATTTTCCTAATCTTTCTGTTCAAGCGCCATCTAC,0.273
4,GATGATTGTTCTCCCAGCTGATGAATTCCAATTGTCGAGTAAACAAATTTTCCTAATCTTTCTGTTCAAGCGCCATCTAC,0.958
5,GATGATTGTTCTCCCAGCTGATGAATTTGCTTCTTCGAGTAAACAAATTTTCCTAATCTTTCTGTTCAAGCGCCATCTAC,2.97
6,GATGATTGTTCTCCCAGCTGATGAATTAAGAAAATCGAGTAAACAAATTTTCCTAATCTTTCTGTTCAAGCGCCATCTAC,0.174
7,GATGATTGTTCTCCCAGCTGATGAATTTTGTTAGTCGAGTAAACAAATTTTCCTAATCTTTCTGTTCAAGCGCCATCTAC,6.69
8,GATGATTGTTCTCCCAGCTGATGAATTATAACTGTCGAGTAAACAAATTTTCCTAATCTTTCTGTTCAAGCGCCATCTAC,0.476
9,GATGATTGTTCTCCCAGCTGATGAATTGGGCCCTTCGAGTAAACAAATTTTCCTAATCTTTCTGTTCAAGCGCCATCTAC,0.711
10,GATGATTGTTCTCCCAGCTGATGAATTCTCCTCCTCGAGTAAACAAATTTTCCTAATCTTTCTGTTCAAGCGCCATCTAC,0.198
11,GATGATTGTTCTCCCAGCTGATGAATTGACAGTATCGAGTAAACAAATTTTCCTAATCTTTCTGTTCAAGCGCCATCTAC,0.709
12,GATGATTGTTCTCCCAGCTGATGAATTTAGGCAATCGAGTAAACAAATTTTCCTAATCTTTCTGTTCAAGCGCCATCTAC,2.05
13,GATGATTGTTCTCCCAGCTGATGAATTGATGTTCTCGAGTAAACAAATTTTCCTAATCTTTCTGTTCAAGCGCCATCTAC,1.61
14,GATGATTGTTCTCCCAGCTGATGAATTCAGATCATCGAGTAAACAAATTTTCCTAATCTTTCTGTTCAAGCGCCATCTAC,0.365
15,GATGATTGTTCTCCCAGCTGATGAATTGCGCAAATCGAGTAAACAAATTTTCCTAATCTTTCTGTTCAAGCGCCATCTAC,1.06
16,GATGATTGTTCTCCCAGCTGATGAATTCTGTACGTCGAGTAAACAAATTTTCCTAATCTTTCTGTTCAAGCGCCATCTAC,0.795
17,GATGATTGTTCTCCCAGCTGATGAATTAAAGCAGTCGAGTAAACAAATTTTCCTAATCTTTCTGTTCAAGCGCCATCTAC,0.508
18,GATGATTGTTCTCCCAGCTGATGAATTGTGAGATTCGAGTAAACAAATTTTCCTAATCTTTCTGTTCAAGCGCCATCTAC,0.905
19,GATGATTGTTCTCCCAGCTGATGAATTGTGCATATCGAGTAAACAAATTTTCCTAATCTTTCTGTTCAAGCGCCATCTAC,4.67
20,GATGATTGTTCTCCCAGCTGATGAATTGTCATAATCGAGTAAACAAATTTTCCTAATCTTTCTGTTCAAGCGCCATCTAC,0.614
21,GATGATTGTTCTCCCAGCTGATGAATTCGGTGTGTCGAGTAAACAAATTTTCCTAATCTTTCTGTTCAAGCGCCATCTAC,2.12

row,Sequence,binding signal (RPM ratio (pull-down/input))
1,GATGATTGTTCTCCCAGCTGATGAATTGGTAGATTCGAGTAAACAAATTTTCCTAATCTTTCTGTTCAAGCGCCATCTAC,0.462
2,GATGATTGTTCTCCCAGCTGATGAATTCGATCTCTCGAGTAAACAAATTTTCCTAATCTTTCTGTTCAAGCGCCATCTAC,0.334
3,GATGATTGTTCTCCCAGCTGATGAATTGTCTGGCTCGAGTAAACAAATTTTCCTAATCTTTCTGTTCAAGCGCCATCTAC,0.294
4,GATGATTGTTCTCCCAGCTGATGAATTGGAGATATCGAGTAAACAAATTTTCCTAATCTTTCTGTTCAAGCGCCATCTAC,0.348
5,GATGATTGTTCTCCCAGCTGATGAATTGAGGGGCTCGAGTAAACAAATTTTCCTAATCTTTCTGTTCAAGCGCCATCTAC,0.368
6,GATGATTGTTCTCCCAGCTGATGAATTCAAGGTTTCGAGTAAACAAATTTTCCTAATCTTTCTGTTCAAGCGCCATCTAC,0.4
7,GATGATTGTTCTCCCAGCTGATGAATTCAGTCCATCGAGTAAACAAATTTTCCTAATCTTTCTGTTCAAGCGCCATCTAC,0.358
8,GATGATTGTTCTCCCAGCTGATGAATTTTAGTAGTCGAGTAAACAAATTTTCCTAATCTTTCTGTTCAAGCGCCATCTAC,0.549
9,GATGATTGTTCTCCCAGCTGATGAATTCGGCATCTCGAGTAAACAAATTTTCCTAATCTTTCTGTTCAAGCGCCATCTAC,7.14
10,GATGATTGTTCTCCCAGCTGATGAATTAAAGCATTCGAGTAAACAAATTTTCCTAATCTTTCTGTTCAAGCGCCATCTAC,5.57
11,GATGATTGTTCTCCCAGCTGATGAATTTTAAGTATCGAGTAAACAAATTTTCCTAATCTTTCTGTTCAAGCGCCATCTAC,0.595
12,GATGATTGTTCTCCCAGCTGATGAATTGCTCTCTTCGAGTAAACAAATTTTCCTAATCTTTCTGTTCAAGCGCCATCTAC,0.468
13,GATGATTGTTCTCCCAGCTGATGAATTAACTAGATCGAGTAAACAAATTTTCCTAATCTTTCTGTTCAAGCGCCATCTAC,0.192
14,GATGATTGTTCTCCCAGCTGATGAATTCAAAGCGTCGAGTAAACAAATTTTCCTAATCTTTCTGTTCAAGCGCCATCTAC,0.406
15,GATGATTGTTCTCCCAGCTGATGAATTAGTCATGTCGAGTAAACAAATTTTCCTAATCTTTCTGTTCAAGCGCCATCTAC,1.51
16,GATGATTGTTCTCCCAGCTGATGAATTGATAGTTTCGAGTAAACAAATTTTCCTAATCTTTCTGTTCAAGCGCCATCTAC,0.756
17,GATGATTGTTCTCCCAGCTGATGAATTATATGATTCGAGTAAACAAATTTTCCTAATCTTTCTGTTCAAGCGCCATCTAC,2.19
18,GATGATTGTTCTCCCAGCTGATGAATTGTCATGTTCGAGTAAACAAATTTTCCTAATCTTTCTGTTCAAGCGCCATCTAC,0.964
19,GATGATTGTTCTCCCAGCTGATGAATTATGAATCTCGAGTAAACAAATTTTCCTAATCTTTCTGTTCAAGCGCCATCTAC,2.3
20,GATGATTGTTCTCCCAGCTGATGAATTCGTTATCTCGAGTAAACAAATTTTCCTAATCTTTCTGTTCAAGCGCCATCTAC,2.4
21,GATGATTGTTCTCCCAGCTGATGAATTCATAATCTCGAGTAAACAAATTTTCCTAATCTTTCTGTTCAAGCGCCATCTAC,0.35

row,Sequence,binding signal (RPM ratio (pull-down/input))
1,GATGATTGTTCTCCCAGCTGATGAATTCGGGACATCGAGTAAACAAATTTTCCTAATCTTTCTGTTCAAGCGCCATCTAC,0.428
2,GATGATTGTTCTCCCAGCTGATGAATTGGAGTCTTCGAGTAAACAAATTTTCCTAATCTTTCTGTTCAAGCGCCATCTAC,0.433
3,GATGATTGTTCTCCCAGCTGATGAATTACATGACTCGAGTAAACAAATTTTCCTAATCTTTCTGTTCAAGCGCCATCTAC,0.445
4,GATGATTGTTCTCCCAGCTGATGAATTGAGCTCTTCGAGTAAACAAATTTTCCTAATCTTTCTGTTCAAGCGCCATCTAC,0.468
5,GATGATTGTTCTCCCAGCTGATGAATTACGAAGTTCGAGTAAACAAATTTTCCTAATCTTTCTGTTCAAGCGCCATCTAC,0.334
6,GATGATTGTTCTCCCAGCTGATGAATTCGATTCATCGAGTAAACAAATTTTCCTAATCTTTCTGTTCAAGCGCCATCTAC,0.736
7,GATGATTGTTCTCCCAGCTGATGAATTAGATGATTCGAGTAAACAAATTTTCCTAATCTTTCTGTTCAAGCGCCATCTAC,1.25
8,GATGATTGTTCTCCCAGCTGATGAATTAAGGTGTTCGAGTAAACAAATTTTCCTAATCTTTCTGTTCAAGCGCCATCTAC,0.773
9,GATGATTGTTCTCCCAGCTGATGAATTTTCCGACTCGAGTAAACAAATTTTCCTAATCTTTCTGTTCAAGCGCCATCTAC,0.237
10,GATGATTGTTCTCCCAGCTGATGAATTTTTCGTTTCGAGTAAACAAATTTTCCTAATCTTTCTGTTCAAGCGCCATCTAC,0.335
11,GATGATTGTTCTCCCAGCTGATGAATTCGTATTGTCGAGTAAACAAATTTTCCTAATCTTTCTGTTCAAGCGCCATCTAC,2.37
12,GATGATTGTTCTCCCAGCTGATGAATTCATCGCATCGAGTAAACAAATTTTCCTAATCTTTCTGTTCAAGCGCCATCTAC,1
13,GATGATTGTTCTCCCAGCTGATGAATTCTAATTCTCGAGTAAACAAATTTTCCTAATCTTTCTGTTCAAGCGCCATCTAC,0.493
14,GATGATTGTTCTCCCAGCTGATGAATTTAACTATTCGAGTAAACAAATTTTCCTAATCTTTCTGTTCAAGCGCCATCTAC,0.445
15,GATGATTGTTCTCCCAGCTGATGAATTCGCAACATCGAGTAAACAAATTTTCCTAATCTTTCTGTTCAAGCGCCATCTAC,3.35
16,GATGATTGTTCTCCCAGCTGATGAATTGGTGACCTCGAGTAAACAAATTTTCCTAATCTTTCTGTTCAAGCGCCATCTAC,0.446
17,GATGATTGTTCTCCCAGCTGATGAATTCAGGCCATCGAGTAAACAAATTTTCCTAATCTTTCTGTTCAAGCGCCATCTAC,0.932
18,GATGATTGTTCTCCCAGCTGATGAATTGTACCGTTCGAGTAAACAAATTTTCCTAATCTTTCTGTTCAAGCGCCATCTAC,0.52
19,GATGATTGTTCTCCCAGCTGATGAATTCCCACCTTCGAGTAAACAAATTTTCCTAATCTTTCTGTTCAAGCGCCATCTAC,0.276
20,GATGATTGTTCTCCCAGCTGATGAATTTTCGCGCTCGAGTAAACAAATTTTCCTAATCTTTCTGTTCAAGCGCCATCTAC,0.401
21,GATGATTGTTCTCCCAGCTGATGAATTGGACCAGTCGAGTAAACAAATTTTCCTAATCTTTCTGTTCAAGCGCCATCTAC,0.224

# Source: PMC12820563
